Sequences with one replicate were seen in a single cluster, so their values are uncertain.
Tested on: ATP
Assay: switch fluorescence ratio, 500 uM ATP over buffer (Cy3 cluster intensity, sum of 5 cycles each) (fold (ratio)); higher = stronger signal-on switching upon ATP binding; sequences stand for … in TCGTCGGCAGCGTCAGATGTGTATAAGAGACAGTTTTTTTTTTTTTTTTTTTTTTTTT…TC
Settings: aptamer strand: ATP DNA aptamer (quencher-CACCTGGGGGAGTATTGCGGAGGAAGG + anchor), 100 nM annealed; ATP concentration: 500 uM; one replicate
Procedure, shortened: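 After annealing to 100 nM quencher-labelled ATP aptamer, Cy3-labelled switching-strand clusters on a modified Illumina MiSeq flow-cell were imaged in selection buffer. A second image followed after 15 min with 500 uM ATP at 22 °C, and five such buffer/ATP cycles were done, each separated by NaOH stripping and re-annealing. The fluorescence ratio, averaged per switch-domain sequence, is summed target-cycle over summed buffer-cycle Cy3 intensity per cluster, with clusters outside 100-1000 RFU excluded.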
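Note: ATP exposure 15 min at 22 °C before imaging.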

Sequence: GTAGACGTTG
- switch fluorescence ratio: 0.974

Sequence: TAAGAAAACA
- switch fluorescence ratio: 1.04

Sequence: AATGAGGACA
- switch fluorescence ratio: 0.987

Sequence: TTCTCATGTA
- switch fluorescence ratio: 0.944

Sequence: CGGTTATTC
- switch fluorescence ratio: 1.04

Sequence: GAGGTCGCTG
- switch fluorescence ratio: 1.02

Sequence: TGAATGGAC
- switch fluorescence ratio: 1.11

Sequence: TAATTTATGT
- switch fluorescence ratio: 0.953

Sequence: AGAATCTTTA
- switch fluorescence ratio: 1.05

Sequence: CTTCTCGGCT
- switch fluorescence ratio: 1.13

Sequence: AACTAGCATA
- switch fluorescence ratio: 1.08

Sequence: GCGCGTAGAG
- switch fluorescence ratio: 1.06

Sequence: TAGAATGAGC
- switch fluorescence ratio: 1.01

Sequence: AGGACATTAA
- switch fluorescence ratio: 1.01

Sequence: ACGCCATGGC
- switch fluorescence ratio: 1.01

Sequence: AATGGGGTGA
- switch fluorescence ratio: 0.983

Sequence: TAATGCCGAT
- switch fluorescence ratio: 1.08

Sequence: TGACAAAGAT
- switch fluorescence ratio: 1.01

Sequence: AGTCCGCCCG
- switch fluorescence ratio: 1.01

Sequence: TGCATGGACC
- switch fluorescence ratio: 1.03

Sequence: AGCGTTTAAG
- switch fluorescence ratio: 1.01

Sequence: CCATATT
- switch fluorescence ratio: 1.01

Sequence: TCATTGCCTG
- switch fluorescence ratio: 0.918

Sequence: GATGATTTT
- switch fluorescence ratio: 0.97

Sequence: CAGACATTCA
- switch fluorescence ratio: 1.03

Sequence: CTCAATAGGT
- switch fluorescence ratio: 1.02

Sequence: ATGTGCAATT
- switch fluorescence ratio: 1.07

Sequence: TTCATTCAGT
- switch fluorescence ratio: 0.973

Sequence: ACGACTCAAC
- switch fluorescence ratio: 2.69

Sequence: CTTCGTTGTG
- switch fluorescence ratio: 0.992

Sequence: ACTATGTCCA
- switch fluorescence ratio: 0.975

Sequence: CTCTTTTCAA
- switch fluorescence ratio: 0.963

Sequence: CGTAAACAGC
- switch fluorescence ratio: 0.981

Sequence: GATGAACGGA
- switch fluorescence ratio: 1

Sequence: GGGGAAGCAC
- switch fluorescence ratio: 1.17

Sequence: CTTTTACAAC
- switch fluorescence ratio: 0.999

Sequence: TAACCCCTCT
- switch fluorescence ratio: 1.03

Sequence: TGACACTAGG
- switch fluorescence ratio: 0.989

Sequence: TCACGTCAG
- switch fluorescence ratio: 0.998

Sequence: CTCTCAGATT
- switch fluorescence ratio: 1.05

Sequence: GTCGGGACGT
- switch fluorescence ratio: 0.971

Sequence: AGCATGGTT
- switch fluorescence ratio: 0.97

Sequence: TTCGTTGGTT
- switch fluorescence ratio: 1.03

Sequence: CTGATACAGT
- switch fluorescence ratio: 1.04

Sequence: AATAACGAAC
- switch fluorescence ratio: 1.29

Sequence: TCAAGTTCTG
- switch fluorescence ratio: 0.983

Sequence: CCCTGTTGGT
- switch fluorescence ratio: 0.955

Sequence: CCGACGGGGG
- switch fluorescence ratio: 1.28

Sequence: AGACTTTATC
- switch fluorescence ratio: 1.02

Sequence: AAAAGTGTGG
- switch fluorescence ratio: 1.01

Sequence: ATTTCGAGGT
- switch fluorescence ratio: 1.01

Sequence: CGATGGCTGT
- switch fluorescence ratio: 1.04

Sequence: GTGTGTGATC
- switch fluorescence ratio: 1.05

Sequence: TATGATTTAC
- switch fluorescence ratio: 1

Sequence: CCTAGGGTAA
- switch fluorescence ratio: 1.05

Sequence: AGGCGAGAG
- switch fluorescence ratio: 0.997

Sequence: CAACGGAAAA
- switch fluorescence ratio: 1.08

Sequence: GGCTTCGTCA
- switch fluorescence ratio: 1.01

Sequence: CCGAAGACAT
- switch fluorescence ratio: 2.94

Sequence: AAACCCTAGG
- switch fluorescence ratio: 1.06

Sequence: TGTAAAAGTC
- switch fluorescence ratio: 1.05

Sequence: TCCTTCAA
- switch fluorescence ratio: 3.82

Sequence: TACCTTAGGG
- switch fluorescence ratio: 1.05

Sequence: TATTAATCCT
- switch fluorescence ratio: 1.05

Sequence: TCAGTTGAT
- switch fluorescence ratio: 1.01

Sequence: GCGAGGAGCC
- switch fluorescence ratio: 1.01

Sequence: CGGCTGTCGA
- switch fluorescence ratio: 1

Sequence: TCGGGTTTAC
- switch fluorescence ratio: 1.4

Sequence: CAGATGTGGT
- switch fluorescence ratio: 0.983

Sequence: TGGCTACCTG
- switch fluorescence ratio: 1

Sequence: AAACGTTACC
- switch fluorescence ratio: 1.75

Sequence: AACCTAGG
- switch fluorescence ratio: 0.989

Sequence: TTACGGGCT
- switch fluorescence ratio: 0.989

Sequence: CTCGCGATTA
- switch fluorescence ratio: 1.65

Sequence: AATAGTGGAA
- switch fluorescence ratio: 0.999

Sequence: ACGCCACGTA
- switch fluorescence ratio: 1.18

Sequence: CGATTGGTAA
- switch fluorescence ratio: 1.03

Sequence: ACAGCACTGA
- switch fluorescence ratio: 1.39

Sequence: AAATAAAGGC
- switch fluorescence ratio: 1.01

Sequence: CCCGTGCCTG
- switch fluorescence ratio: 1.11

Sequence: TTTTGGGCCG
- switch fluorescence ratio: 1.02

Sequence: GATGACGGCC
- switch fluorescence ratio: 1.21

Sequence: AGGCTTATAG
- switch fluorescence ratio: 1.03

Sequence: AGAGGAAATT
- switch fluorescence ratio: 0.98

Sequence: GTTATGCTTT
- switch fluorescence ratio: 1.02

Sequence: ATATACATGA
- switch fluorescence ratio: 1.09

Sequence: CATGCTGATA
- switch fluorescence ratio: 0.993

Sequence: AGAACCTTTC
- switch fluorescence ratio: 3.18

Sequence: CGACCCGTGC
- switch fluorescence ratio: 1.72

Sequence: GGCGCTAAAT
- switch fluorescence ratio: 1.07

Sequence: CAAAGAAAG
- switch fluorescence ratio: 0.985

Sequence: CTCCATGCAG
- switch fluorescence ratio: 1.36

Sequence: AGTGACAGCA
- switch fluorescence ratio: 1.01

Sequence: AATTCCCGGT
- switch fluorescence ratio: 1.03

Sequence: GCCACGACCA
- switch fluorescence ratio: 1.18

Sequence: TACGAGTGGC
- switch fluorescence ratio: 0.929

Sequence: CAGGCCGGTG
- switch fluorescence ratio: 1.04

Sequence: ATCCAGCATC
- switch fluorescence ratio: 1.71

Sequence: TAGGATCCTA
- switch fluorescence ratio: 1.01

Sequence: TCGATCGTCT
- switch fluorescence ratio: 1.08

Sequence: TCAGTCGAGT
- switch fluorescence ratio: 0.989

Sequence: CATGGATCGC
- switch fluorescence ratio: 1.01

Sequence: ATTTGCCTAT
- switch fluorescence ratio: 0.954

Sequence: ACCCGCGTGG
- switch fluorescence ratio: 1.03

Sequence: TTTAGTGGCC
- switch fluorescence ratio: 1.01

Sequence: CCTCAGAA
- switch fluorescence ratio: 1.39

Sequence: GCACGGGCCT
- switch fluorescence ratio: 1.02

Sequence: CACCGCACCG
- switch fluorescence ratio: 1.57

Sequence: ATTACGTTCG
- switch fluorescence ratio: 1.01

Sequence: CCACTGTGCT
- switch fluorescence ratio: 1.13

Sequence: TTATCGGGA
- switch fluorescence ratio: 1

Sequence: TGGTGACAAT
- switch fluorescence ratio: 0.987

Sequence: TATAGGATCA
- switch fluorescence ratio: 1.03

Sequence: AGTAGACGGA
- switch fluorescence ratio: 0.985

Sequence: ATACTAACAT
- switch fluorescence ratio: 1.2

Sequence: GGGCTGCGGG
- switch fluorescence ratio: 0.964

Sequence: AATGCAGTTA
- switch fluorescence ratio: 0.993

Sequence: AGATAACACT
- switch fluorescence ratio: 1.05

Sequence: AAAACAAGAC
- switch fluorescence ratio: 1.69

Sequence: GATTTACCAT
- switch fluorescence ratio: 1.03

Sequence: GTCTTTTTA
- switch fluorescence ratio: 0.955

Sequence: ACAACTCAAT
- switch fluorescence ratio: 1.09

Sequence: TGCACCTCCT
- switch fluorescence ratio: 1.15

Sequence: GGTTGCAAAG
- switch fluorescence ratio: 0.963

Sequence: TTGAGTTCAC
- switch fluorescence ratio: 0.94

Sequence: TGGGACCGGA
- switch fluorescence ratio: 0.994

Sequence: TGTAGTAATG
- switch fluorescence ratio: 1.1

Sequence: AGCCACAC
- switch fluorescence ratio: 1.06

Sequence: GATTCGCCTA
- switch fluorescence ratio: 1.02

Sequence: CGGAGAGTTA
- switch fluorescence ratio: 1.01

Sequence: GCTTGAGGTG
- switch fluorescence ratio: 1.04

Sequence: CTCTGATCT
- switch fluorescence ratio: 1.04

Sequence: TTTCAACACA
- switch fluorescence ratio: 0.978

Sequence: AGTGAGCCTA
- switch fluorescence ratio: 1.01

Sequence: AAAATGTTAC
- switch fluorescence ratio: 1.09

Sequence: TCATAATAGA
- switch fluorescence ratio: 0.977

Sequence: ATGAAAGGGG
- switch fluorescence ratio: 0.99

Sequence: TCGGAGGCAT
- switch fluorescence ratio: 1.38

Sequence: AATTCTTATG
- switch fluorescence ratio: 0.98

Sequence: GGGGCTCAAG
- switch fluorescence ratio: 1.01

Sequence: CAGCTAAGTT
- switch fluorescence ratio: 0.968

Sequence: CCATGACTCC
- switch fluorescence ratio: 1.58

Sequence: GATATCGAAA
- switch fluorescence ratio: 1.01

Sequence: TATAAAGTGA
- switch fluorescence ratio: 1.05

Sequence: TACGTCTGGC
- switch fluorescence ratio: 0.992

Sequence: CATGTTTCAA
- switch fluorescence ratio: 1

Sequence: AGACACAATA
- switch fluorescence ratio: 1.2

Sequence: GGACTTTTG
- switch fluorescence ratio: 1.02

Sequence: ACTATATACT
- switch fluorescence ratio: 1.13

Sequence: GCGGGCGGAA
- switch fluorescence ratio: 0.964

Sequence: AAAACATCTT
- switch fluorescence ratio: 1.03

Sequence: TTGCAGCTGA
- switch fluorescence ratio: 1.04

Sequence: TCGTACCCGC
- switch fluorescence ratio: 1.34

Sequence: ATAAGTTGG
- switch fluorescence ratio: 1.01

Sequence: CACACACCTA
- switch fluorescence ratio: 1.27

Sequence: TTAGTCTGCT
- switch fluorescence ratio: 0.949

Sequence: CAAGGAGGCT
- switch fluorescence ratio: 0.972

Sequence: TGCTTTTGGC
- switch fluorescence ratio: 0.994

Reference: the supplement of paper PMC10126150
